Experimental data as given in PubChem BioAssay AID1347073 (National Center for Advancing Translational Sciences (NCATS), 2019).
Among all 45,000 compounds or so, about 200 (0.44%) were called active. Roughly 7% stayed inconclusive and do not appear here. Calls follow the shape of the dose curve; as a rule, active = well fitted activation curve with a large enough effect; inconclusive = small, poorly fitted or top-dose-only effect; inactive = no such curve, though single readings can be large or run the other way. The list shows a part of the results.

test: qHTS of TDP-43 Inhibitors: NCGC Sytravon Library Screen; conditions: yeast TDP-43 toxicity rescue, BacTiter-Glo growth, 24 h; series mostly up to 46.1 µM; growth rescue (activation): at the top concentration; also: 0% is about no effect; nearly all actives have a fitted effect of over 55% in size
Summary of the method: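 TDP-43-expressing yeast, pregrown in raffinose, seeded at OD600 0.02 in galactose medium with compound for 24 hr at 30 deg C. Growth read by BacTiter-Glo luminescence, so rescue of toxicity appears as activation.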

SMILES	growth rescue (activation)
CCc1ccc(N2CC(C(=O)Nc3ccc4c(c3)OCCO4)CC2=O)cc1 (stereo not given)	inactive: 1.33%
Cc1ccc(C)c(OCc2nc3ccc(S(=O)(=O)Nc4c(C)n(C)n(-c5ccccc5)c4=O)cc3[nH]2)c1	inactive: 20.4%
C=CCN1C(=O)c2ccccc2NC1c1ccc(Br)s1 (stereo not given)	inactive: 33.3%
CC1(C)C=C2C(=NN(c3ccccc3)C(N)=C2C#N)CO1	inactive: -1.86%
Cc1ccc(C)c(OCC(=O)Nc2c[nH]c(=O)[nH]c2=O)c1	inactive: 16.1%
Cc1ccc(S(=O)(=O)N2CCC[C@H]2C(=O)OCc2nc3ccccc3s2)cc1	inactive: -5.53%
COc1cccc(CC(NC(C)=O)C(=O)NC2CCN(c3c4c(nc5ncnn35)CCC4)CC2)c1 (stereo not given)	inactive: 23.4%
CN(CCc1cn[nH]c1)C(=O)C1CCC(=O)N(CC2CCCCC2)C1 (stereo not given)	inactive: 14.3%
OC(c1ccccc1)c1ncc(-c2ccc(Cl)cc2)[nH]1 (stereo not given)	inactive: 12.3%
CCc1nnc(NC(=O)c2nc(S(=O)(=O)Cc3cccc(C)c3)ncc2Cl)s1	inactive: 26.7%
CCCS(=O)(=O)NC(=O)C1(C)CCN(C(=O)Cc2cccc(OC)c2)C1 (stereo not given)	inactive: 10.4%
CC1(C(=O)NS(=O)(=O)C2CC2)CCN(C(=O)CSc2ccccc2)C1 (stereo not given)	inactive: 5.94%
Cc1onc(-c2c(Cl)cccc2Cl)c1C(=O)N1CCN(c2ccc(F)cc2)CC1	inactive: 26.2%
CCC(Oc1ccccc1)C(=O)Nc1ccc(O)c(-c2nc3cc(C)ccc3o2)c1 (stereo not given)	inactive: 2.32%
COc1cc(OC)cc(C(=O)N2CCN(C3CCCCC3)CC2)c1	inactive: 6%
CC(C)c1ccc(N(CC(=O)NCc2cccnc2)S(=O)(=O)c2ccccc2)cc1	inactive: 28.5%
CCOC(=O)c1nnsc1N	inactive: 9.12%
Cc1ccc(NC(=O)Nc2ccc(Cl)cc2)c(Br)c1	inactive: 11.7%
COc1ccc(CCNC(=O)C(=O)NCCOc2ccccc2)cc1OC	inactive: 19.6%
COc1cccc(/C=N/NC(=O)c2cccs2)c1	inactive: -6.33%
CCn1cnc2sc(C(=O)Oc3cccc(C)c3)c(C)c2c1=O	inactive: 1.64%
CC(=O)c1cc(CN2CCN(C(C)C)C(CCO)C2)cs1 (stereo not given)	inactive: -12.9%
Cc1ccc(Cl)cc1-c1cc(C(=O)N2CCN(c3ccncc3)CC2)[nH]n1	inactive: 8.21%
COc1ccc(-n2c(C)cc(C(=O)CSc3ccc(NC(C)=O)cc3)c2C)cc1	inactive: 0.107%

SMILES	growth rescue (activation)
COCc1ccc(C(=O)NCC2(N3CCCCC3)CCCCC2)cc1	inactive: -5%
CCOc1ccccc1OCCCC(=O)Nc1sccc1C(N)=O	inactive: 21.1%
Cc1ccc(CSCc2nc3ccccc3[nH]2)cc1	inactive: -5.29%
COc1ccc(Cl)cc1NC(=S)Nc1cccnc1	inactive: 15.9%
CC(CNS(=O)(=O)c1ccc(Cl)cc1)n1cncn1 (stereo not given)	inactive: -1.99%
COCCCNC(=S)Nc1ccc(CC(=O)O)cc1	inactive: -17%
O=C(Cn1c(=O)ccn(Cc2ccccc2)c1=O)Nc1cccc(S(=O)(=O)N2CCOCC2)c1	inactive: 24.2%
O=C(COC(=O)/C=C/c1ccc(Br)o1)Nc1cccc(S(=O)(=O)N2CCOCC2)c1	inactive: -5.11%
O=C(CC12CC3CC(CC(C3)C1)C2)NC(=S)Nc1ccc(CN2CCOCC2)cc1	inactive: 17.1%
O=c1[nH]c(CN2CCN(Cc3ccccc3)CC2)nc2scc(-c3ccccc3)c12	inactive: -9.59%
CCc1nn(C(C)C(=O)NCCN2CCN(c3cccc(C)c3C)CC2)c(=O)c2cc3occc3n12 (stereo not given)	inactive: -2.05%
CCOC(=O)CC1=CSC2=NS(=O)(=O)CCN12	inactive: -11.7%
CC1(C(=O)NS(=O)(=O)C2CC2)CCN(C(=O)c2cccc(Cl)c2)C1 (stereo not given)	inactive: 4.94%
CCCCNC(=O)Cn1c(=O)c2c(ncn2CCC(C)C)n(Cc2ccccc2)c1=O	inactive: 13.8%
CCOC(=O)N/N=C/c1ccc(N2CCOCC2)s1	inactive: -3.1%
O=C(O)c1ccc(/C=N/NC(=O)c2cc(-c3cccs3)nc3ccccc23)cc1	inactive: 6.01%
O=C(c1cc(F)ccc1F)C1CCCN(C(=O)c2cccs2)C1 (stereo not given)	inactive: 30.5%
O=C(Nc1cccc(S(=O)(=O)N2CCOCC2)c1)C1COc2ccccc2O1 (stereo not given)	inactive: -0.966%
COc1cc(/C=N/N(C)C)cc(Br)c1O	inactive: -14.3%
O=C1C2C3C=CC(C4CC34)C2C(=O)N1/N=C/c1ccc([N+](=O)[O-])o1 (stereo not given)	inactive: 22.1%
CC(C)Cn1c(N)c(C(=O)COC(=O)c2ccccc2F)c(=O)n(C)c1=O	inactive: 6.2%
Cc1cccc(C(C)C)c1NC(=O)c1ccc(CN(c2ccccc2)S(=O)(=O)c2ccccc2)cc1	inactive: 1.79%
CN(C)C(=O)CNc1ccn2nc(-c3cccc(OCCN4CCOCC4)c3)cc2n1	inactive: 6.91%
Cc1cc(SCC(=O)NN)c2cc(Br)ccc2n1	inactive: -11.4%

SMILES	growth rescue (activation)
CCN1C(=O)/C(=C/c2ccc(OCc3ccc(C(=O)O)cc3)c(Cl)c2)NC1=S	inactive: 9.11%
CCc1nc2c(OCCOc3ccccc3)cccn2c1N(C=O)Cc1ccc(OC)cc1	inactive: 7.4%
COc1cccc(N2CCN(c3ccc(S(=O)(=O)N4CCN(C)CC4)cc3[N+](=O)[O-])CC2)c1	inactive: -4.72%
S=C(NCCc1c[nH]c2ccccc12)NC1CC1	inactive: 1.92%
Nc1nc2n(n1)C(=O)CC(c1ccccc1)N2 (stereo not given)	inactive: 2.18%
CCOC(=O)N1CCN(C(=O)C2CCN(C(=O)c3ccccc3C)CC2)CC1	inactive: -93.1%
CC(=O)Nc1cccc(NC(=O)CSc2nnc3ccccn23)c1	inactive: 14.4%
Cc1ccc2cc(NC(=O)C3(C)CCN(C)C3)ccc2n1 (stereo not given)	inactive: 22.4%
Cc1cccc(Nc2nccc(N(C)C)c2C#N)c1	inactive: 4.03%
CN(C(=O)c1cccc(S(=O)(=O)NCc2ccccc2)c1)C1CCCCC1	inactive: 17.6%
O=C(CSc1nnc(-c2ccccc2)n1Cc1ccco1)NCc1ccc2c(c1)OCO2	inactive: -22.8%
CC(C)NS(=O)(=O)c1ccc(NC(=O)C(C)OC(=O)CCCOc2ccccc2)cc1 (stereo not given)	inactive: 9.8%
O=C(c1cc(-c2ccc(Cl)cc2)on1)N1CCCC1	inactive: 9.64%
CCN(CC)c1ccc(/C=N/Nc2nc(C)cc(C)n2)cc1	inactive: 8.99%
Cc1cc(Cl)ccc1OCC(=O)Nc1cccnc1	inactive: 0.769%
COc1ccc(OC)c(S(=O)(=O)N2CCC(C(=O)N3CCOCC3)CC2)c1	inactive: 0.469%
CCOC(=O)c1nc2ccccc2c(=O)[nH]1	inactive: 14.3%
Clc1ccccc1Cc1noc(CN2CCCCC2CCc2ccccn2)n1 (stereo not given)	inactive: -8.46%
CN(c1ccccc1C(=O)Nc1cccc([N+](=O)[O-])c1)S(C)(=O)=O	inactive: 14.4%
COc1ccc(/C(=N/O)C(C)(C)NO)cc1	inactive: -23.1%
Cc1cc(NC(=O)COc2ccc3ccccc3c2)no1	inactive: -1.46%
CC12CCC(C(=O)N/N=C/c3ccc(O)cc3O)(OC1=O)C2(C)C (stereo not given)	inactive: -5.3%
